Experimental findings from PMC9911399, “Two distinct binding modes provide the RNA-binding protein RbFox with extraordinary sequence specificity” are described below.

The chains are these.
T1: RBFOX1 RRM (Homo sapiens, UniProt Q9NWB1 109-208)
T1 sequence: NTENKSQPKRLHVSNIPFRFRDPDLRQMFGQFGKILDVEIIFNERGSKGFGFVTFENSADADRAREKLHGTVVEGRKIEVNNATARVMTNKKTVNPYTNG

B1: CAGGUGG (DNA:RNA)
RNA: GGGAGACCGGAAUUCAGAUUGUCCCAGGUGGUUAAAUCCCGUCGUAGCCACCA
DNA 1: CAATCTGAATTCCGGTCTCCC
DNA 2: TGGTGGCTACGACGGGATT
B2: CUCUUAU (DNA:RNA)
RNA: B1 RNA with A26U, G27C, G28U, G30A, G31U
DNA 1: CAATCTGAATTCCGGTCTCCC
DNA 2: TGGTGGCTACGACGGGATT
B3: GUCCCCC (DNA:RNA)
RNA: GGGAGACCGGAAUUCAGAUUGUCCGUCCCCCUUAAAUCCCGUCGUAGCCACCA
DNA 1: CAATCTGAATTCCGGTCTCCC
DNA 2: TGGTGGCTACGACGGGATT
B4: AAGGUGG (DNA:RNA)
RNA: B1 RNA with C25A
DNA 1: CAATCTGAATTCCGGTCTCCC
DNA 2: TGGTGGCTACGACGGGATT
B5: ACUGAGG (DNA:RNA)
RNA: B1 RNA with C25A, A26C, G27U, U29A
DNA 1: CAATCTGAATTCCGGTCTCCC
DNA 2: TGGTGGCTACGACGGGATT
B6: CUCGGGA (DNA:RNA)
RNA: B1 RNA with A26U, G27C, U29G, G31A
DNA 1: CAATCTGAATTCCGGTCTCCC
DNA 2: TGGTGGCTACGACGGGATT
B7: ACCUGUA (DNA:RNA)
RNA: B3 RNA with G25A, U26C, C28U, C29G, C30U, C31A
DNA 1: CAATCTGAATTCCGGTCTCCC
DNA 2: TGGTGGCTACGACGGGATT
B8: UCCAAAU (DNA:RNA)
RNA: B3 RNA with G25U, U26C, C28A, C29A, C30A, C31U
DNA 1: CAATCTGAATTCCGGTCTCCC
DNA 2: TGGTGGCTACGACGGGATT
B9: GCCUGCC (DNA:RNA)
RNA: B3 RNA with U26C, C28U, C29G
DNA 1: CAATCTGAATTCCGGTCTCCC
DNA 2: TGGTGGCTACGACGGGATT
B10: UAUAAGC (DNA:RNA)
RNA: B1 RNA with C25U, G27U, G28A, U29A, G31C
DNA 1: CAATCTGAATTCCGGTCTCCC
DNA 2: TGGTGGCTACGACGGGATT
B11: CGCAGAU (DNA:RNA)
RNA: B1 RNA with A26G, G27C, G28A, U29G, G30A, G31U
DNA 1: CAATCTGAATTCCGGTCTCCC
DNA 2: TGGTGGCTACGACGGGATT
B12: CCGUUCA (DNA:RNA)
RNA: B1 RNA with A26C, G28U, G30C, G31A
DNA 1: CAATCTGAATTCCGGTCTCCC
DNA 2: TGGTGGCTACGACGGGATT
B13: CAGAGCA (DNA:RNA)
RNA: B1 RNA with G28A, U29G, G30C, G31A
DNA 1: CAATCTGAATTCCGGTCTCCC
DNA 2: TGGTGGCTACGACGGGATT
B14: CUGAACU (DNA:RNA)
RNA: B1 RNA with A26U, G28A, U29A, G30C, G31U
DNA 1: CAATCTGAATTCCGGTCTCCC
DNA 2: TGGTGGCTACGACGGGATT
B15: AUAUGCC (DNA:RNA)
RNA: B3 RNA with G25A, C27A, C28U, C29G
DNA 1: CAATCTGAATTCCGGTCTCCC
DNA 2: TGGTGGCTACGACGGGATT
B16: UAGGCAG (DNA:RNA)
RNA: B1 RNA with C25U, U29C, G30A
DNA 1: CAATCTGAATTCCGGTCTCCC
DNA 2: TGGTGGCTACGACGGGATT
B17: UACUACA (DNA:RNA)
RNA: B3 RNA with G25U, U26A, C28U, C29A, C31A
DNA 1: CAATCTGAATTCCGGTCTCCC
DNA 2: TGGTGGCTACGACGGGATT
B18: CCUUACG (DNA:RNA)
RNA: B1 RNA with A26C, G27U, G28U, U29A, G30C
DNA 1: CAATCTGAATTCCGGTCTCCC
DNA 2: TGGTGGCTACGACGGGATT
B19: GGUACAA (DNA:RNA)
RNA: B3 RNA with U26G, C27U, C28A, C30A, C31A
DNA 1: CAATCTGAATTCCGGTCTCCC
DNA 2: TGGTGGCTACGACGGGATT
B20: AACACCA (DNA:RNA)
RNA: B3 RNA with G25A, U26A, C28A, C31A
DNA 1: CAATCTGAATTCCGGTCTCCC
DNA 2: TGGTGGCTACGACGGGATT
B21: UGUUUAG (DNA:RNA)
RNA: B1 RNA with C25U, A26G, G27U, G28U, G30A
DNA 1: CAATCTGAATTCCGGTCTCCC
DNA 2: TGGTGGCTACGACGGGATT
B22: ACUCAAU (DNA:RNA)
RNA: B3 RNA with G25A, U26C, C27U, C29A, C30A, C31U
DNA 1: CAATCTGAATTCCGGTCTCCC
DNA 2: TGGTGGCTACGACGGGATT
B23: UGAAAUG (DNA:RNA)
RNA: B1 RNA with C25U, A26G, G27A, G28A, U29A, G30U
DNA 1: CAATCTGAATTCCGGTCTCCC
DNA 2: TGGTGGCTACGACGGGATT
B24: AGUUUGG (DNA:RNA)
RNA: B1 RNA with C25A, A26G, G27U, G28U
DNA 1: CAATCTGAATTCCGGTCTCCC
DNA 2: TGGTGGCTACGACGGGATT
B25: AUUGCAU (DNA:RNA)
RNA: B3 RNA with G25A, C27U, C28G, C30A, C31U
DNA 1: CAATCTGAATTCCGGTCTCCC
DNA 2: TGGTGGCTACGACGGGATT
B26: CGAGGAC (DNA:RNA)
RNA: B1 RNA with A26G, G27A, U29G, G30A, G31C
DNA 1: CAATCTGAATTCCGGTCTCCC
DNA 2: TGGTGGCTACGACGGGATT
B27: ACACGUC (DNA:RNA)
RNA: B3 RNA with G25A, U26C, C27A, C29G, C30U
DNA 1: CAATCTGAATTCCGGTCTCCC
DNA 2: TGGTGGCTACGACGGGATT
B28: GGCAGAC (DNA:RNA)
RNA: B3 RNA with U26G, C28A, C29G, C30A
DNA 1: CAATCTGAATTCCGGTCTCCC
DNA 2: TGGTGGCTACGACGGGATT
B29: CGCGUCG (DNA:RNA)
RNA: B1 RNA with A26G, G27C, G30C
DNA 1: CAATCTGAATTCCGGTCTCCC
DNA 2: TGGTGGCTACGACGGGATT
B30: AAUGCCG (DNA:RNA)
RNA: B1 RNA with C25A, G27U, U29C, G30C
DNA 1: CAATCTGAATTCCGGTCTCCC
DNA 2: TGGTGGCTACGACGGGATT
B31: CUCGUCA (DNA:RNA)
RNA: B1 RNA with A26U, G27C, G30C, G31A
DNA 1: CAATCTGAATTCCGGTCTCCC
DNA 2: TGGTGGCTACGACGGGATT

Numbering of substitutions follows the chain as printed; changes in the protein carry UniProt numbers. The list shows a part of the results.

This assay deals with T1, RBFOX1 RRM. In words: EMSA; HiTS-Eq, 1 nM pool, 10 min; buffer printed only for the single-RNA assays: 10 mM Tris pH 7.5, 150 mM NaCl, 3.4 mM EDTA, 0.001% NP-40, 30 C. To be noted: tags: His6 N-terminal (pET28a); label: 5' 32P. In short, it runs like this:
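Purified RbFox RRM, wild type or mutant, was incubated for 10 min in 50 µL with 1 nM of a 5′-radiolabelled RNA pool carrying 7 randomized nucleotides, whose flanks were annealed to DNA oligonucleotides, over a series of increasing protein concentrations. Unbound RNA was resolved on 8% native PAGE, cut out, reverse-transcribed, barcoded by PCR and sequenced on an Illumina HiSeq 2500. Relative association constants were derived from changes in read counts for each RNA species versus the control reaction and normalised to the cognate motif.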
With B1, the binding signal is 0.00878 KA relative to UGCAUGU. Turning to B2, the binding signal is 0.00198 KA relative to UGCAUGU.

For B3, the binding signal was 0.0163 KA relative to UGCAUGU.

As for B4, the binding signal is 0.0131 KA relative to UGCAUGU. The figure for B5 is 0.0126 KA relative to UGCAUGU; for B6 it is 0.00233 KA relative to UGCAUGU. On to B7, for which the binding signal was 0.00505 KA relative to UGCAUGU.

For the molecule B8, the binding signal was 0.00115 KA relative to UGCAUGU.

B9: the binding signal was 0.0261 KA relative to UGCAUGU.

As to B10, the binding signal was 0.00937 KA relative to UGCAUGU.

For the molecule B11, the binding signal is 0.00891 KA relative to UGCAUGU.

For B12, the binding signal was 0.00724 KA relative to UGCAUGU. With B13, the binding signal was 0.00837 KA relative to UGCAUGU. Regarding B14, the binding signal was 0.00869 KA relative to UGCAUGU. B15: the binding signal is 0.00682 KA relative to UGCAUGU.

For the molecule B16, the binding signal was 0.0165 KA relative to UGCAUGU. As to B17, the binding signal was 0.00169 KA relative to UGCAUGU.

For the molecule B18, the binding signal is 0.00237 KA relative to UGCAUGU. The figure for B19 is 0.00136 KA relative to UGCAUGU; for B20 it is 0.000667 KA relative to UGCAUGU; for B21 it is 0.0202 KA relative to UGCAUGU. As for B22, the binding signal is 0.000275 KA relative to UGCAUGU. For B23, the binding signal was 0.0128 KA relative to UGCAUGU. The figure for B24 is 0.0144 KA relative to UGCAUGU. Consider B25, for which the binding signal is 0.0144 KA relative to UGCAUGU. On to B26, for which the binding signal was 0.00531 KA relative to UGCAUGU. On to B27, for which the binding signal was 0.00354 KA relative to UGCAUGU.

On to B28, for which the binding signal was 0.0184 KA relative to UGCAUGU. With B29, the binding signal was 0.0133 KA relative to UGCAUGU. On to B30, for which the binding signal was 0.00918 KA relative to UGCAUGU. For B31 the value was 0.00671 KA relative to UGCAUGU.
